Reference: PubChem BioAssay AID1461 (National Center for Advancing Translational Sciences (NCATS), 2008)
Hit rate of the full screen: of about 220,000 compounds, about 2,300 (1%) were called active. Inconclusive results, whose numbers are uncertain, are shown with a selection of clear calls. The call rests on the fitted dose curve; in most records, active means well fitted inhibition curve with a large enough effect; inconclusive means small, poorly fitted or top-dose-only effect, or effect the other way; inactive means no such curve, though single readings can be large or run the other way. No potency is given beside an inconclusive call; the fits are too rough.

These compounds were tested against Neuropeptide S receptor (Homo sapiens) (UniProt Q6W5P4) (assay: qHTS Assay for Antagonists of the Neuropeptide S Receptor: cAMP Signal Transduction). Settings: CHO-NPSR cells, cAMP TR-FRET, antagonist mode; series mostly up to 38.3 µM.
Chain of UniProt Q6W5P4 (Q6W5P4 whole entry, looked up): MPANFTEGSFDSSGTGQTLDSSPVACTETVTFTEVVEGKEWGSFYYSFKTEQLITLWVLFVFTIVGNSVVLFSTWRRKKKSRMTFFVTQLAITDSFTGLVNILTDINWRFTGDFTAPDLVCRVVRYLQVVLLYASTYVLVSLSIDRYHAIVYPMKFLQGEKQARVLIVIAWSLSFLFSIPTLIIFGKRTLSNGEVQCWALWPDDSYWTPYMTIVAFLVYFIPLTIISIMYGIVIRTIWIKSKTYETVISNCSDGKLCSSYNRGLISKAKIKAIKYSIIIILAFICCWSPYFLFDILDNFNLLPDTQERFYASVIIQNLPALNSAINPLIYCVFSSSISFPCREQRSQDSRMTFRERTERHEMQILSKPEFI
Further: nearly all actives have a fitted effect of over 50% in size.
Potency means the concentration at half of the fitted maximal effect; tags describe the fitted curve by direction and shape.

Row | SMILES | Potency
1 | CCNc1nc(NCC)n2c(SCc3nc4ccccc4c(=O)[nH]3)nnc2n1 | inactive
2 | CC(C)(C)c1ccc(S(=O)(=O)/C=C/C#N)cc1 | active: 20 µM
3 | COc1ccccc1N(CC(=O)NC1CCCC1)C(=O)c1oc(C(C)(C)C)cc1C | inconclusive [inhibitor, single point]
4 | Nc1cc(N)nc(SCC(=O)Nc2ccc(Br)cc2Cl)n1 | inactive
5 | COc1ccccc1/C=C1\S/C(=N/NC(=O)c2cccc(Br)c2)NC1=O | inactive
6 | Cc1ccccc1-n1c(SCc2c(C)noc2C)nnc1-c1c[nH]c2ccccc12 | inconclusive [inhibitor, single point]
7 | C=CCn1cc(C(=O)NCC2CCCO2)c(=O)c2cc(S(=O)(=O)N3CCCCCC3)ccc21 (stereo not drawn) | inactive
8 | O=C(COc1ccccc1Cl)NCc1ccncc1 | inconclusive [inhibitor, partial curve]
9 | COc1cc(/C=C2/SC(=NCc3ccccc3)N(Cc3ccccc3)C2=O)ccc1O | inconclusive [inhibitor, single point]
10 | O=c1c2ccccc2nnn1CSc1nnc(-c2cccc(S(=O)(=O)N3CCCCC3)c2)o1 | inconclusive [inhibitor, partial curve, poor fit]
11 | CCOC(=O)N/N=C/c1c(F)cccc1F | inactive
12 | CS(=O)(=O)N(Cc1ccc(C(=O)NC2CCCCC2O)cc1)c1ccccc1 (stereo not drawn) | inconclusive [inhibitor, single point]
13 | CCc1ccccc1N=C1SCC(=O)N1C | inconclusive [inhibitor, single point]
14 | CCC(=O)N1CCc2cc(S(=O)(=O)NCCC(=O)N3CC=C(c4ccccc4)CC3)ccc21 | inactive
15 | CCOC(=O)C1=NN(c2ccccc2)C2(S1)SC(C(C)=O)=C(C)N2c1ccccc1 (stereo not drawn) | inconclusive [inhibitor, single point]
16 | COc1ccc2nc(/N=C\N(C)C)sc2c1 | inactive
17 | COc1ccc(NC(=O)C(NC(=O)c2ccc(=O)[nH]c2)c2ccc(OC)cc2)cc1 (stereo not drawn) | inactive
18 | Cc1cccc(CSc2nnc(-c3cccs3)n2Cc2ccco2)c1 | inconclusive [inhibitor, partial curve]
19 | CC(=O)[C@@]1(O)C(C)CC2C3C=C(C)C4=Cc5c(cnn5-c5ccccc5)C[C@]4(C)C3C(O)C[C@@]21C (stereo partly drawn) | inconclusive [inhibitor, single point]
20 | COc1ccc(-c2nc3cc(NC(=S)NC(=O)Cc4ccccc4)ccc3o2)cc1 | inactive
21 | COc1ccccc1NC(=O)c1ccc2nc(-c3ccccc3)c(-c3ccccc3)nc2c1 | inconclusive [inhibitor, single point]
22 | CCOC(=O)CSc1nc2ccccc2c(=O)n1CCCCCC(=O)NCc1ccco1 | inconclusive [inhibitor, partial curve]
23 | CC(/C=C\C=C\c1ccccc1)=N\NC(=O)c1cncc(Br)c1 | inactive
24 | NC(=O)c1ccc[n+](CC(=O)OCCC23CC4CC(CC(C4)C2)C3)c1 | inactive
25 | O=C(CSc1ncnc2nc[nH]c12)c1ccc([N+](=O)[O-])cc1 | inactive

Row | SMILES | Potency
26 | O=C(O)c1cc(=O)c2c(Cl)cc(Cl)cc2[nH]1 | inactive
27 | Cc1cc(N/N=C2/CCCc3ccccc32)nc2ccccc12 | inconclusive [inhibitor, single point]
28 | O=C(/C=C/c1ccccc1)c1cc(Br)ccc(=O)c1O | inconclusive [inhibitor, full curve, poor fit]
29 | c1ccc(CNc2ccc3ccccc3n2)nc1 | inactive
30 | Cc1ccc(CNC(=O)C(Cc2ccccc2)NS(=O)(=O)c2ccc(Br)s2)cc1 (stereo not drawn) | inactive
31 | CCCCC(CC)C(=O)Oc1ccc(O)c(C(C)(C)C)c1 (stereo not drawn) | inconclusive [inhibitor, single point]
32 | c1ccc(CCNc2ncnc3c2cnn3-c2ccccc2)cc1 | inconclusive [inhibitor, single point]
33 | CN1/C(=C/C=C(C#N)C#N)C=Cc2ccccc21 | inconclusive [activator, partial curve]
34 | Cc1ccc(C)c(-c2nn(-c3cc(N4CCN(CCO)CC4)ccc3[N+](=O)[O-])c(=O)c3ccccc23)c1 | inconclusive [inhibitor, single point]
35 | O=[N+]([O-])c1cc(S(=O)(=O)Nc2ccccc2)ccc1-n1nnc2ccccc21 | inactive
36 | Cc1ccc(C)c(NC(=O)C2Cc3ccccc3CN2C(=O)OCc2ccccc2)c1 (stereo not drawn) | inconclusive [inhibitor, single point]
37 | CCn1c(SCC(=O)Nc2cc3oc4ccccc4c3cc2OC)nnc1-c1cccs1 | inconclusive [inhibitor, partial curve]
38 | CCCCCCC1NC(C(=O)O)CS1 (stereo not drawn) | inactive
39 | N#C/C(=C\c1ccc(O)c(O)c1)C(=O)NCCCc1ccccc1 | inconclusive [inhibitor, full curve, poor fit]
40 | CCN(Cc1ccccc1)c1ccc(/C=N/NS(=O)(=O)c2cccc([N+](=O)[O-])c2)cc1 | inactive
41 | NC(=O)c1cc(-c2ccccc2)nc(Oc2ccccc2)n1 | inactive
42 | Cc1ccccc1OCC(=O)N/N=C/c1sc(=O)n(Cc2cccc(C(=O)O)c2)c1Cl | inconclusive [inhibitor, single point]
43 | Cn1cc(C(=O)c2ccc(Cl)cc2)cc1-c1nc2ccccc2n1C | inconclusive [inhibitor, single point]
44 | C(=N\Nc1nc2ccccc2s1)/c1ccccn1 | inconclusive [activator, partial curve]
45 | CN(C)c1ccc(C(=S)N2CCN(c3ccc([N+](=O)[O-])cc3)CC2)cc1 | inactive
46 | COc1cc(-c2nc3ccc4ccccc4c3c3c2CCC3)cc(OC)c1OC | inconclusive [inhibitor, partial curve]
47 | CCc1cccc(C)c1NC(=S)N1CCCC1C(=O)O (stereo not drawn) | inconclusive [activator, full curve, poor fit]
48 | O=C(N/N=C/c1ccco1)C(O)c1ccccc1 (stereo not drawn) | inconclusive [inhibitor, single point]
49 | CCCc1cc(=O)oc2c3c(c4c(c12)OC(C)(C)C=C4)OC(C)C(C)C3O (stereo not drawn) | inconclusive [activator, partial curve]
50 | CC(C)NC(=S)NN(c1ccccc1)c1ccccc1 | inconclusive [inhibitor, single point]

Row | SMILES | Potency
51 | CC(C)(C)n1nnnc1C(c1cccc(C#N)c1)N1CCN2CCCC2C1 (stereo not drawn) | inactive
52 | CC1(C)OC(=CC=Nc2ccc(Cl)cc2)OC1(C)C | inconclusive [inhibitor, single point]
53 | O=C(CSc1nc(Nc2ccccc2)nc(N2CCOCC2)n1)Nc1ccc([N+](=O)[O-])cc1 | inconclusive [inhibitor, partial curve]
54 | CC[C@@H]1CC=C[C@H]2[C@H]1C(=O)N(Cc1ccccc1)[C@H]2c1ccc(OC)c(Cl)c1 | inconclusive [inhibitor, single point]
55 | O=C1NC(=O)c2cc(Br)cc3cccc1c23 | inconclusive [inhibitor, single point]
56 | Cc1n[nH]c(=S)c2nn(-c3ccccc3)c(C)c12 | inconclusive [activator, partial curve]
57 | O=C(N/N=C/c1ccc(N2CCCCC2)o1)c1ccccc1 | inactive
58 | COc1ccc(/C=C/C(=O)NNc2c(F)c(F)cc(F)c2F)cc1OC | inconclusive [inhibitor, single point]
59 | COC(=O)CCS(=O)(=O)c1nc(-c2ccccc2)cc(C(F)(F)F)n1 | active: 10 µM
60 | COc1ccc(/C=N/Nc2nncc3ccccc23)cc1 | inactive
61 | Cc1ccccc1CN1CCN(CC2CC3C=CC2C3)CC1 (stereo not drawn) | inactive
62 | CCOc1nc(-c2ccccc2)ccc1-c1noc(-c2cccs2)n1 | inconclusive [inhibitor, single point]
63 | Nc1cc(S(=O)(=O)Nc2ccc(Br)cc2)ccc1Cl | inconclusive [inhibitor, single point]
64 | Cc1ccc(C)c(NS(=O)(=O)c2cc(C(=O)N3CCc4ccccc4C3)ccc2Cl)c1 | inconclusive [inhibitor, partial curve]
65 | COc1cc(/C=N/Nc2nc(-c3ccc(S(=O)(=O)N(C)C)cc3)cs2)ccc1O | inconclusive [inhibitor, single point]
66 | CCOC(=O)c1sc2ccccc2c1OC(=O)c1ccccc1OC | inconclusive [inhibitor, single point]
67 | CCOC(=O)c1ccc(Nc2ncccc2[N+](=O)[O-])cc1 | inactive
68 | CCc1ccc(NC(=O)C2(c3ccccc3)CC2(Cl)Cl)cc1 (stereo not drawn) | inconclusive [inhibitor, single point]
69 | CCc1ccc(NC(=S)N2CCN(c3cccc(C(F)(F)F)c3)CC2)cc1 | inactive
70 | CCOC(=O)c1sc(NC(=O)c2ccco2)nc1-c1ccccc1 | inconclusive [activator, single point]
71 | CCOC(=O)c1cc(-c2ccc(OC)cc2F)nc2c1c(C)nn2CCC#N | inconclusive [inhibitor, partial curve]
72 | Cc1cc(NC(=O)CCc2ccc(S(=O)(=O)N3CCOCC3)cc2)n(-c2ccccc2)n1 | inactive
73 | COc1ccc(C2Nc3ccccc3C(=O)N2Cc2ccccc2)cc1CSc1ccccn1 (stereo not drawn) | inconclusive [inhibitor, partial curve]
